Test results reported in the supplement of paper PMC3334620.
Whole data set: some 33,000 sequences, median “E-score (-0.5 to 0.5)” near -0.056, cut for the highest 2% near 0.38. Some of the results follow.

Molecular target: Stb4 (UniProt P50104)
Assay: PBM E-score (8-mer binding enrichment) (E-score (-0.5 to 0.5)); higher = stronger / more preferred TF binding; most listed sequences are background and not binding sites
Conditions: protein concentration: 200 nM; construct: GST-DNA-binding domain
How it was run: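 Using PURExpress in vitro transcription/translation, GST-tagged yeast transcription factors were made in full-length or DNA-binding-domain form. These were applied at about 100-200 nM to double-stranded universal all-10-mer Agilent arrays, and bound protein was detected with fluorescent anti-GST. Scans were normalised with masliner before the Universal PBM Analysis Suite assigned E-scores to ungapped eight-base words pooled with their reverse complements.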

Row | Sequence | PBM E-score
1 | GCTCCGAA | 0.4
2 | AGTATTCC | 0.262
3 | ACACTGAT | -0.258
4 | GTGTTTGA | -0.163
5 | GGAGCCGA | 0.379
6 | CCCAGTTC | 0.0962
7 | AAGTATTG | -0.115
8 | TATTTGCA | -0.276
9 | TGTCCACA | -0.239
10 | GAACGGAC | 0.0592
11 | AAGCATTG | -0.204
12 | GTGGAGCA | 0.0216
13 | AAGGGTAC | -0.159
14 | AACAAGTG | -0.0943
15 | AGGAGATC | -0.082
16 | AGCCTTAA | 0.0282
17 | AATCTTCA | 0.0951
18 | AGGAAGCC | 0.0867
19 | CGACCCAC | 0.0879
20 | AGCTTCCC | -0.00142
21 | AACCACTT | -0.0917
22 | TGCTACAA | -0.0485

Row | Sequence | PBM E-score
23 | CCCCTCAG | -0.0721
24 | AACCTGGA | -0.142
25 | CATACAAC | -0.0987
26 | CCGGATTC | 0.294
27 | CTCCTACA | -0.143
28 | CCTTCGCC | 0.0378
29 | ATGCTCAC | -0.062
30 | ACATCTCC | 0.235
31 | ATTCGCGG | 0.139
32 | AAGTCTAA | -0.168
33 | TGTAGAAA | -0.177
34 | CGGGTCGC | 0.24
35 | TAGGTAAA | 0.00148
36 | TCTCATAA | -0.205
37 | CAATTTAG | -0.0721
38 | AGGGGAGC | -0.0873
39 | CACCGGAG | 0.125
40 | ACAAACCC | 0.0864
41 | AACAATAT | 0.153
42 | GGACGGCC | -0.028
43 | CTAATTAA | -0.0322
44 | CTTAATGC | 0.0531

Row | Sequence | PBM E-score
45 | AAACGGTG | -0.188
46 | AAACAATT | 0.0396
47 | TACGCCCA | -0.132
48 | CGGTATAG | 0.202
49 | CATCCTTC | 0.0191
50 | AGTACACG | -0.116
51 | GACGCGTA | -0.104
52 | GCTGATTA | 0.0553
53 | AGAAACGG | 0.139
54 | CATACTAC | 0.0396
55 | GGTAACAA | 0.0578
56 | CAGCTCGA | -0.144
57 | AAGTTGTC | -0.00572
58 | AGTCGCCG | 0.154
59 | AAAATTCT | -0.0472
60 | GAAATCAC | 0.0158
61 | CGGGGATC | 0.279
62 | CTGTTCCC | 0.0707
63 | AATCATAA | -0.089
64 | TAAGTGCA | 0.00861
65 | ATGTGGTC | -0.203
66 | AGACACTA | 0.00615

Row | Sequence | PBM E-score
67 | ACCCAAAT | -0.181
68 | GATAGGGA | -0.0934
69 | CCGCTACC | 0.142
70 | ATTCCAAG | -0.162
71 | GGATGCTA | 0.27
72 | ATGTCCCA | -0.0826
73 | TACCTGCA | -0.0176
74 | ACCCCGCT | 0.0384
75 | CACTCGGA | 0.422
76 | GATAGATC | 0.0728
77 | CCAGTTGA | -0.155
78 | GAGAAAGC | -0.0839
79 | ACTCCTGA | -0.0483
80 | AACCACGT | -0.236
81 | ACCACATA | 0.0381
82 | CATACGTA | -0.102
83 | GTGATCTA | -0.0262
84 | ACGCATCG | -0.0318
85 | GAACGTAC | -0.0571
86 | CTCTTTAA | -0.175
